Data as given in PubChem BioAssay (NCATS).
The inconclusive results got no clear call from the source; some entries with a clear call stand among them for comparison. No potency is given beside an inconclusive call; the fits are too rough. Activity calls are given as the source filed them. Calls follow the shape of the dose curve; as a rule, active = well fitted curve in the direction sought with a large enough effect; inconclusive = small, poorly fitted or top-dose-only effect, or another doubt; inactive = no such curve, though single readings can be large; an effect the other way counts as inactive or inconclusive.

assay: qHTS assay to identify small molecule inhibitors of chordoma cells - UCH-1 (AID 1259355); settings: UCH-1 chordoma viability, CellTiter-Glo, 48 h, combination, with auranofin plus four topoisomerase inhibitors; series mostly up to 46.1 µM; also: nearly all actives have a fitted effect of over 55% in size
How it was run: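 Seed 800 cells per well; incubate overnight at 37 C, 5% CO2. Add test compounds (15 concentrations), then the auranofin–topoisomerase-agent combination. Incubate 48hr, add CellTiter-Glo, wait 30min, read luminescence.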
Potency is read from the fitted curve at half-maximal effect; tags tell the direction and shape of the fitted curve.

Compound	Potency
O=S(=O)(O)CC(S)CS (configuration not stated)	inactive
CC1CC(O)CC(C)(C)C1 (configuration not stated)	inactive
CCN1CCCC1=O	inactive
O=C1OCCN1/N=C/c1ccc([N+](=O)[O-])o1	inconclusive [cytotoxic, full curve, poor fit]
C=C1C[C@H]2[C@@H]3C=C(C)C4=CC(=O)CC[C@]4(C)[C@H]3CC[C@]2(C)[C@@]1(OC(C)=O)C(C)=O	inconclusive [cytotoxic, full curve, poor fit]
O=C1OC2(c3ccccc31)c1cc(Br)c(O)c(Br)c1Oc1c2cc(Br)c(O)c1Br	inactive
COc1cc([C@@H]2c3cc4c(cc3C(O[C@@H]3O[C@@H]5COC(c6cccs6)O[C@H]5[C@H](O)[C@H]3O)C3COC(=O)[C@@H]32)OCO4)cc(OC)c1O (some centres not stated)	inconclusive [cytotoxic, single point]
CCCCCCCC/C=C\CCCCCCCC(=O)O	inconclusive [cytotoxic, partial curve, poor fit]
CN=C1C=CC(=C(c2ccc(N(C)C)cc2)c2ccc(N(C)C)cc2)C=C1	active: 15.8 µM
CCCOc1ccc2nc(NC(=O)OC)sc2c1	inconclusive [cytotoxic, partial curve, poor fit]
CC[C@H](C)[C@H]1O[C@]2(CC[C@@H]1C)C[C@@H]1C[C@@H](C/C=C(\C)[C@@H](O[C@H]3C[C@H](OC)[C@@H](O[C@H]4C[C@H](OC)[C@@H](O)[C@H](C)O4)[C@H](C)O3)[C@@H](C)/C=C/C=C3\CO[C@@H]4[C@H](O)C(C)=C[C@@H](C(=O)O1)[C@]34O)O2	inconclusive [cytotoxic, partial curve, poor fit]

assay: qHTS assay to identify small molecule inhibitors of chordoma cells - UCH-2 (AID 1259356); settings: UCH-2 chordoma viability, CellTiter-Glo ATP luminescence, 48 h; series mostly up to 46.1 µM

Compound	Potency
O=S(=O)(O)c1ccc2nc(-c3ccccc3)[nH]c2c1	inconclusive [cytotoxic, single point]
Nc1ncnc2nc[nH]c12	inconclusive [rising, partial curve]
CC[C@@]1(O)C[C@H](O[C@H]2C[C@H](N(C)C)[C@H](O[C@H]3C[C@H](O)[C@H](O[C@H]4CCC(=O)[C@H](C)O4)[C@H](C)O3)[C@H](C)O2)c2c(cc3c(c2O)C(=O)c2c(O)cccc2C3=O)[C@H]1C(=O)OC	inconclusive [cytotoxic, partial curve, poor fit]
Cc1cc(-c2ccc(N=Nc3c(S(=O)(=O)O)cc4cc(S(=O)(=O)O)cc(N)c4c3O)c(C)c2)ccc1N=Nc1c(S(=O)(=O)O)cc2cc(S(=O)(=O)O)cc(N)c2c1O	active: 8.2 µM
O=C(Nc1cccc(C(F)(F)F)c1)c1cc(Br)cc(Br)c1O	inconclusive [cytotoxic, partial curve]
CCN(CC)C(=O)[C@]1(c2ccccc2)C[C@@H]1CN	inactive
CC1CC(O)CC(C)(C)C1 (configuration not stated)	inactive
COc1cc([C@@H]2c3cc4c(cc3C(O[C@@H]3O[C@@H]5COC(c6cccs6)O[C@H]5[C@H](O)[C@H]3O)C3COC(=O)[C@@H]32)OCO4)cc(OC)c1O (some centres not stated)	inconclusive [cytotoxic, partial curve]
CN=C1C=CC(=C(c2ccc(N(C)C)cc2)c2ccc(N(C)C)cc2)C=C1	active: 9.2 µM
CCCOc1ccc2nc(NC(=O)OC)sc2c1	inconclusive [cytotoxic, single point]
CC[C@H](C)[C@H]1O[C@]2(CC[C@@H]1C)C[C@@H]1C[C@@H](C/C=C(\C)[C@@H](O[C@H]3C[C@H](OC)[C@@H](O[C@H]4C[C@H](OC)[C@@H](O)[C@H](C)O4)[C@H](C)O3)[C@@H](C)/C=C/C=C3\CO[C@@H]4[C@H](O)C(C)=C[C@@H](C(=O)O1)[C@]34O)O2	inconclusive [cytotoxic, single point]
